Measurements as given in a collection of fitness landscapes (doi:10.1016/j.celrep.2020.107928).
Whole data set: some 81,000 sequences, median “one-hybrid fitness for binding parS DNA” near -0.17, cut for the highest 2% near 0.51. Some of the results follow.

B1: Caulobacter ParB omega fusion; a variant is named by its letters at X, in order, B8GW30 (parent)
chain: MESVVVGEPGMSEGRRGLGRGLSALLGEVDAAPAQAPGEQLGGSREAPIEILQRNPDQPRRTFREEDLEDLSNSIREKGVLQPILVRPSPDTAGEYQIVAGERAWRAAQRAGLKTVPIMVRELDDLAVLEIGIIENVQRADLNVLEEALSYKVLMEKFERTQENIAQTIGKSXSHVANXMRLLXLPDEVQSYLVSGELTAXHARAIAAAADPVALAKQIIEGGLSVRETEALARKAPNLSAGKSKGGRPPRVKDTDTQALESDLSSVLGLDVSIDHRGSTGTLTITYATLEQLDDLCNRLTRGI

Variants of: B1
Experiment: one-hybrid fitness for binding parS DNA (scaled: cognate 1, non-cognate 0); higher = stronger binding
Conditions: with parS DNA site
In short: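 The reporter was HIS3, with the binding site 19 bp from the promoter, in E. coli USO used for bacterial one-hybrid selection of Caulobacter ParB libraries with four specificity codons randomised. Growth was on M9 lacking histidine, with 0.1 mM IPTG and 5 mM 3-AT, for 48 hours at 37°C. Illumina sequencing covered plasmids before and after selection; three replicate libraries were pooled and variants with under 10 reads dropped. A fitness score is the log change in variant-to-wild-type read ratio, rescaled to the cognate and non-cognate references.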

one-hybrid fitness for binding parS DNA, ≤ 0.2:
NDMH
QPSF
HESA
TEDG
TIYI
VFTS
CRLC
HVMR
HPKN
AQAG
DPGT
KIDS
IRPL
QPYH
TSHQ
HNAC
LFSL
VVLD
QRKP
NSAG
SHIR
RQVV
PLQP
WINM
PRFM
QNTH
ATQT
WLKS
YYTF
EPSA
HARH
GQYS
QGHI
TASV
DYNV
WFCT
SRGF
YTRT
REMT
PLNE
LDLF
ARRE
QLFV
KCRT
ACAI
LFMR
GHCH
KILI
DSSF
ALFF
WEAS
AFTG
RDKP
SEQD
KRYP
YPSS
MHHG
IPPA
TTNR
RCND
SDQI
QSGM
HSFC
RLPW
EVPA
RRHE
THHG
CNKR
EAKR
ICWS
NVVG
LMMM
SHHR
RQYK
CMGL
IINT
QCGA
RRAD
ATIV
GPSC
LNNR
SNPA
RQTV
SGQH
TVYC
QNST
LDLI
TPPT
KRTS
KKKK
TTGT
EELL
RAYR
KSCC
FDHL
HSYD
HSTK
PNMC
ASNI
TWFT
MDFR
RNMV
PYAL
CGHC
PAML
LTKP
EKRC
GFIS
HPVE
NVGG
TKTC
SNSD
YTRF
TMDS
ATDL
SPFM
IWKT
SDVL
DIND
YGVW
QDTN
VWLT
QWKC
HICC
QTQT
RTRL
RAGK
QKII
RASR
QMRN
CCRA
PLTS
DEVR
YTSM
MAKW
QSSN
VGWS
SSFR
QIKE
RRRI
KAPS
HASR
CWLR
WLKR
ELTI
RPDV
QHGP
KGPT
WKTV
TRTL
PWAG
FKNR
SADL
FQLG
QPHW
NPPR
GTQT
DLCR
ANTS
KCDS
AADF
PCEL
PLVD
MRYT
SFRC
QQCT
HMVG
RWQD
RRAK
KASP
QKCW
FADA
THNL
RKAF
ELRE
RIIQ
IGTS
LKNT
SQPL
LEPL
IWLS
GHVD
LFMS
LTMF

one-hybrid fitness for binding parS DNA, 0.934:
RVGC

one-hybrid fitness for binding parS DNA, 0.62:
RLNA

one-hybrid fitness for binding parS DNA, 0.249:
RGKM

one-hybrid fitness for binding parS DNA, 0.38:
AHGE

one-hybrid fitness for binding parS DNA, 0.273:
RIIM
CHYD

one-hybrid fitness for binding parS DNA, 0.975:
RVSS

one-hybrid fitness for binding parS DNA, 0.326:
RASM

one-hybrid fitness for binding parS DNA, 0.952:
RKYG

one-hybrid fitness for binding parS DNA, 0.213:
RCDF

one-hybrid fitness for binding parS DNA, 0.458:
RLKN
